# “And” between values parts separate entries of the source, which are not always exact repeats. Equal values may be shown once. Inconclusive means that the source gave no clear call. Such entries were picked first, then a sample of the others. A potency beside an inconclusive call is a rough fit, not a confirmed value. The source made the active and inactive calls. The call rests on the fitted dose curve; in most records, active means well fitted cell-killing curve with a large enough effect in the repeat runs; inconclusive means weak or mixed curves, or effect the other way; inactive means no such curve, though single readings can be large or run the other way.
# Test: qHTS assay to identify small molecule antagonists of the glucocorticoid receptor (GR) signaling pathway - cell viability counter screen (AID 720693); further: nearly all actives have a fitted effect of over 55% in size
# Conditions: GR-bla HeLa viability, CellTiter-Glo luminescence, 18 h, with 5 nM dexamethasone present; series mostly up to 58.5 µM
# Text: National Center for Advancing Translational Sciences [NCATS]
# NIH Chemical Genomics Center [NCGC]
# U.S. Environmental Protection Agency [EPA]
# National Institutes of Environmental Health Sciences [NIEHS]
# National Toxicology Program [NTP]
# U.S. Food and Drug Administration [FDA]
# The Glucocorticoid receptor (GR) is one of the members of the nuclear receptor family of ligand-dependent transcription factors. GR plays a critical role in carbohydrate, protein and lipid metabolisms and programmed cell death. CellSensor GR-bla HeLa cell line (Invitrogen) contains a beta-lactamase reporter gene under the control of the glucocorticoid response element stably integrated into HeLa cells, a cervical cancer cell line that expresses glucocorticoid receptor. The activation of the reporter gene under culture conditions can be detected by fluorescence intensity. This cell line has been used to screen the Tox21 10K compound library and to identify the compounds that inhibit the GR signaling. The cytotoxicity of the Tox21 compound library against the GR-bla HeLa cell line was tested in parallel by measuring the cell viability using CellTiter-Glo assay in the same wells.
# Tox21 Assay Protocol Summary:
# The GR-bla HeLa cells were dispensed at 1500 cells/5 ul/well in 1536-well black wall/clear bottom plates using a Multidrop Combi (ThermoFisher Scientific, Waltham, MA) dispenser. After the assay plates were incubated at a 37 C/5% CO2 incubator for 4 hours, 23 nL of compounds dissolved in DMSO, positive controls or DMSO only was transferred to the assay plate by a pintool station (Kalypsys, San Diego, CA), followed by addition of 1 uL of dexamethasone (5 nM, final concentration in the well). The plates were incubated at 37 C for 18 hours. After 1 uL of LiveBLAzerTM B/G FRET substrate was added using a Flying Reagent Dispenser (Aurora Discovery, San Diego, CA), the plates were incubated at room temperature (RT) for 2 hours, and fluorescence intensity was measured by an Envision plate reader (PerkinElmer, Shelton, CT). After measurement of bla assay, 3 ul CellTiter-Glo (Promega, Madison, WI) was added to measure the cytotoxicity and the plates were then incubated at RT for 30 min. The luminescence was measured using a ViewLux (Perkin Elmer) plate reader.
# Potency means the concentration at half of the fitted maximal effect; tags describe the fitted curve by direction and shape.
row,SMILES,Potency
1,O=S(=O)(NS(=O)(=O)C(F)(F)F)C(F)(F)F,"inconclusive: 61.5 µM [rising, single point]"
2,C[C@]12CC[C@H]3[C@@H](CCC4=CC(=O)CC[C@@]43C)[C@@H]1CC[C@@H]2OC(=O)CCc1ccccc1,"inconclusive: 34.7 µM [cytotoxic, partial curve]"
3,COc1cc(OC)nc(NC(=O)NS(=O)(=O)c2ncccc2C(=O)N(C)C)n1,"inconclusive: 13.8 µM [rising, full curve, poor fit]"
4,CCC/C=C/C=C/C(=O)O[C@H]1/C(=C/C(=O)OC)C[C@H]2C[C@H]([C@@H](C)O)OC(=O)C[C@H](O)C[C@@H]3C[C@H](OC(C)=O)C(C)(C)[C@](O)(C[C@@H]4C/C(=C/C(=O)OC)C[C@H](/C=C/C(C)(C)[C@]1(O)O2)O4)O3,inactive
5,Nc1c(Br)cc(Br)c2c1C(=O)c1ccccc1C2=O,inactive
6,C[C@]1(O)CC[C@H]2[C@@H]3CCC4=CC(=O)CC[C@]4(C)[C@@]3(F)[C@@H](O)C[C@@]21C,"inconclusive: 62 µM [rising, partial curve, poor fit]"
7,NNC(N)=O,inactive
8,CCOC(=O)/C=C(C)/C=C/C[C@@H](C)CCCC(C)C,"inconclusive: 54.9 µM [cytotoxic, single point]"
9,c1cc[n+]2c(c1)-c1cccc[n+]1CC2,inactive
10,CC(C=O)Cc1ccc2c(c1)OCO2 (stereo not given),"inconclusive: 54.9 µM [rising, single point]"
11,O=S(=O)(O)c1cc(O)ccc1O,inactive
12,CN(C)[C@H](Cc1ccccc1)c1ccccc1,inactive
13,OCC(Cl)CCl (stereo not given),"inconclusive: 43.1 µM [rising, partial curve, poor fit]"
14,CC(=O)O[C@H]1CC[C@H]2[C@@H]3CCC4=CC(=O)CCC4=C3C=C[C@]12C,"inconclusive: 0.019 µM [cytotoxic, full curve]"
15,COP(=S)(OC)Oc1c(Cl)cc(C)cc1Cl,inactive
16,C#C[C@]1(OC(=O)CCCCCC)CC[C@H]2[C@@H]3CCC4=CC(=O)CC[C@@H]4[C@H]3CC[C@@]21C,active: 21.3 µM
17,Oc1ccc2c3c1O[C@H]1[C@@H](O)CC[C@@]4(O)[C@@H](C2)N(CC2CCC2)CC[C@]314,inactive
18,COc1cccc2c1cc([N+](=O)[O-])c1c(C(=O)O)cc3c(c12)OCO3,active: 12.3 µM
19,C[C@]12CC[C@H]3[C@@H](CCC4=CC(=O)CC[C@@H]43)[C@@H]1CC[C@@H]2OC(=O)CCc1ccccc1,"inconclusive: 0.0952 µM [rising, single point]"
20,CCOP(=S)(OCC)SCCSCC,inactive

row,SMILES,Potency
1,Brc1ccc(Br)cc1,"inconclusive: 5.4 µM [rising, single point]"
2,O=S1(=O)OCCO1,"inconclusive: 3.16 µM [rising, partial curve, poor fit]"
3,O=S(=O)(c1ccccc1)c1ccccc1,inactive
4,CCC1COC(Cn2cncn2)(c2ccc(Cl)cc2Cl)O1 (stereo not given),"inconclusive: 6.92 µM [rising, full curve, poor fit]"
5,O=P1(N(CCCl)CCCl)NC(OO)CCO1 (stereo not given),"inconclusive: 23.9 µM [cytotoxic, single point]"
6,CNC(=O)O/N=C/C(C)(C)SC,"inconclusive: 2.19 µM [rising, single point]"
7,CCCCC[C@@H](O)C1C(=O)OC(C)[C@H](O)/C=C/C=C/C=C/C=C/C=C(\C)C(O)C(O)C(O)C[C@H](O)C[C@H](O)C[C@H](O)C[C@H](O)C[C@@H]1O (stereo not given in full),inactive
8,NNCc1ccccc1,"inconclusive: 62.8 µM [rising, single point]"
9,CSC(C)(C)/C=N/O,inactive
10,CCCCCc1cc(O)c2c(c1)OC(C)(C)[C@@H]1CCC(C)=C[C@@H]21,active: 23.9 µM
11,C[C@]12CC[C@H]3[C@@H](CCC4=CC(=O)CC[C@@H]43)[C@@H]1CC[C@@H]2O,"inconclusive: 23.9 µM [cytotoxic, partial curve, poor fit] and inconclusive: 43.2 µM [cytotoxic, partial curve]"
12,Cc1nnc(-c2ccccc2)c(=O)n1N,inactive
13,CCC1C(C)=NN=C(c2ccc(OC)c(OC)c2)c2cc(OC)c(OC)cc21 (stereo not given),"inconclusive: 26.8 µM [rising, single point]"
14,C=CCN1CC[C@]23CCCC[C@H]2[C@H]1Cc1ccc(O)cc13,"inconclusive: 6.01 µM [rising, single point]"
15,O=C(CCCN1CCC(n2c(=O)[nH]c3ccccc32)CC1)c1ccc(F)cc1,inactive
16,O=C(Nc1ccccc1)c1ccccc1I,inactive
17,CC(=O)NNc1ccccc1,"inconclusive: 15.4 µM [cytotoxic, partial curve, poor fit]"
18,N=C(N)[Se],"inconclusive: 43.8 µM [rising, partial curve]"
19,C[C@]12CC[C@H](O)C[C@H]1CC[C@@H]1[C@@H]2CC[C@]2(C)[C@@H](c3ccc(=O)oc3)C[C@H]3O[C@]132,active: 2.68 µM
20,COC([CH2][Hg])CNC(=O)c1ccccc1OCC(=O)O (stereo not given),inactive

# From PubChem BioAssay (Tox21)
